Source: the RNAGym collection of RNA variant scans (doi:10.1073/pnas.2313332121)
Variants at the floor of the assay are shown more often than the library holds them.

B1: TPR 5TU (parent)
chain: GGAUCUUCUCGAUCUAACAAAAAAGACAAAUCUGCCACAAAGCUUGAGAGCAUCUUCGGAUGCAGAGGCGGCAGCCUUCGGUGGCGCGAUAGCGCCAACGUUCUCAACUAUGACACGCAAAACGCGUGCUCCGUUGAAUGGAGUUUAUCAUG

Variants of: B1
Assay: polymerase ribozyme fitness, log enrichment relative to wild type (log ratio); higher = more active; in vitro selection for triplet polymerase activity
How it was run: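 Fitness measures genotype enrichment against wild-type enrichment on a logarithmic scale, with inverse-variance-weighted averaging of replicates. The logarithm is base 2, and genotypes were kept only with ≥10 input reads and ≥1 read per output in Illumina sequencing. The sequenced libraries came from one triplicate in vitro selection round, including frozen incubation at −7 °C, of PCR-built, transcribed mutant libraries of each subunit of a heterodimeric triplet polymerase ribozyme.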

Row | Variant | polymerase ribozyme fitness (log ratio)
1 | GGAUCUUCUCGAUCUAACAAAAAAGACAAAUCUGCCACAAAGCUUGAGAGCAUCUUCGGAUGCAGAGACGGCAGCCUUCGGUGGCGCGAUAGCGCCAACGUUCUCAACUAUGACACGCAAAACGCGUGCUCCGUUGAAUGGAGUUUAUCAAG [G68A U151A] | ≤ -4.2
2 | GGAUCUUCUCGAUCUAACAAAAAAGACAAAUCUGCCACAAAGCUUGAGAGCAUCUUCGGAUGCAGAGUCGGCAGCCUUCGGUGGAGCGAUAGCGCCAACGUUCUCAACUAUGACACGCAAAACGCGUGCUCCGUUGAAUGGAGUUUAUCAUG [G68U C85A] | ≤ -4.2
3 | GGAUCUUCUCGAUCUAACAAAAAAGACAAAUCUGCCACAAAGCUUGAGAGCAUCUUCGGAUGCAGAGCCGGCAGCCUUCGGUGGCGCGAUAGCGCGAACGUUCUCAACUAUGACACGCAAAACGCGUGCUCCGUUGAAAGGAGUUUAUCAUG [G68C C96G U139A] | ≤ -4.2
4 | GGAUCUUCUCGAUCUAACAAAAAAGACAAAUCUGCCACAAAGCUUGAGAGCAUCUUCGGAUGCAGAGCCGGCAGCCUUCGGUGGCUCGUUAGCGCAAACGUUCUCAACUUUGAUACGCAAAACGCGUGCUCCGUUGAAUGGAGUUUAUCAUG [G68C G86U A89U C96A A110U C114U] | ≤ -4.2
5 | GGAUCUUCUCGAUCUAACAAAAAAGACAAAUCUGCCACAAAGCUUGAGAGCAUCUUCGGAUGCAGAGUCGGCAGCCUUCGGUGGCGCGCUAGCGCCAACGUUCUCAACUAUGACACGCAAAACGCGUGCUCCGUUGAAUGGAGUGUAUCAUG [G68U A89C U145G] | ≤ -4.2
6 | GGAUCUUCUCGAUCUAACAAAAAAGACAAAUCUGCCACAAAGCUUGAGAGCAUCUUCGGAUGCAGAGCCGGCAGCCUUCGGUGGCCCAAUAGCGCCAACGUUCUCAACUAUGACACGCAAAACGUGUGCUCCGUUGAAUGCAGUUUAUCAUG [G68C G86C G88A C125U G141C] | ≤ -4.2
7 | GGAUCUUCUCGAUCUAACAAAAAAGACAAAUCUGCCACAAAGCUUGAGAGCAUCUUCGGAUGCAGAGCCGGCAGCCUUCGGUGGCGCGAUAGUGCCAACGUUCUCAACUAUGACACGCAAAACGCGUGCUCCGUUGAAUAGAGUUUGUCAUG [G68C C93U G140A A147G] | ≤ -4.2
8 | GGAUCUUCUCGAUCUAACAAAAAAGACAAAUCUGCCACAAAGCUUGAGAGCAUCUUCGGAUGCAGAGCCGGCAGCCUUCGGUUGCGCGAUAGCGCCAACGUUCUCAACUAUGACACGCAAAACGCGUGCUCCGUUGAAUGGAUUUUAUCAUG [G68C G83U G143U] | ≤ -4.2
9 | GGAUCUUCUCGAUCUAACAAAAAAGACAAAUCUGCCACAAAGCUUGAGAGCAUCUUCGGAUGCAGAGUCGGCGGCUUUCGGUGGCGCGAUUGCGCCAGAGUUCUCAACUAUUACACGCAAAACGCGUGCUCCGUUGAAUGGAGUUUAUCAUG [G68U A73G C76U A91U A98G C99A G112U] | ≤ -4.2
10 | GGAUCUUCUCGAUCUAACAAAAAAGACAAAUCUGCCACAAAGCUUGAGAGCAUCUUCGGAUGCAGAGCCGGCAGCCUUCGGUGGUGCGCUAGCGCCAACGUUCUCAACUAUGACACGGAAAACGCGUGCUCCGUUGAAUUGAGUUUAACAUG [G68C C85U A89C C118G G140U U148A] | ≤ -4.2
11 | GGAUCUUCUCGAUCUAACAAAAAAGACAAAUCUGCCACAAAGCUUGAGAGCAUCUUCGGAUGCAGAGCCGGCAGCCUUCGGUGGCGCGACAGCGCUAAUGUUCUCAACUAUGAGACGCACCACGCGUGCUCCGUUGAAUGGAGUUUAUCAUG [G68C U90C C96U C99U C114G A120C A121C] | ≤ -4.2
12 | GGAUCUUCUCGAUCUAACAAAAAAGACAAAUCUGCCACAAAGCUUGAGAGCAUCUUCGGAUGCAGAGCCGGCAGCCUUCGGUUGCGCGAUAACGCCAACGUACUCAACUAUGACACGCAAAACGCGUGCUCCGUUGGAUGGGGUUUAUCAUG [G68C G83U G92A U102A A137G A142G] | ≤ -4.2
13 | GGAUCUUCUCGAUCUAACAAAAAAGACAAAUCUGCCACAAAGCUUGAGAGCAUCUUCGGAUGCAGAGCCGGCAGCCUUCGGUGAAGCGAUAGCGCCAACGUUCUCAACUAUGACACGCAAAACGCGUGCUCCGUUGAAUGGAGUUUAUCAUG [G68C G84A C85A] | ≤ -4.2
14 | GGAUCUUCUCGAUCUAACAAAAAAGACAAAUCUGCCACAAAGCUUGAGAGCAUCUUCGGAUGCAGAGCCGGCAGCCUUCGGUGGCGCGAUAGCGCCAACGUUCUCCAUUAUGACAUGAAAAACGCGUGCUCCGUUGAAUGGAGUUUAUCAUG [G68C A106C C108U C116U C118A] | ≤ -4.2
15 | GGAUCUUCUCGAUCUAACAAAAAAGACAAAUCUGCCACAAAGCUUGAGAGCAUCUUCGGAUGCAGAGCCGGCAGCCUUCGGUGGCGAGAUAGCGCCAACGUUCUCAACUAUGACACGCAAAACGCGUGCUCCGUUGAAUGGAGUUUAUCAUG [G68C C87A] | ≤ -4.2
16 | GGAUCUUCUCGAUCUAACAAAAAAGACAAAUCUGCCACAAAGCUUGAGAGCAUCUUCGGAUGCAGAGCCGGCAGCCUUCGGUGGCGCGAUAGCGCCAACGUUCUCAACUAUGACACGCAAAACGCGUGCUCCGUUGAAUGGCGUUUAUCAUG [G68C A142C] | ≤ -4.2
17 | GGAUCUUCUCGAUCUAACAAAAAAGACAAAUCUGCCACAAAGCUUGAGAGCAUCUUCGGAUGCAGAGCCGGCAGCCUUCGGUGGAGCGAUAGUGCCAACGUUCACAACUAUGACACGCAAAACGCGUGCUCCGUUGAAUGGAGUUUAUCAUG [G68C C85A C93U U104A] | ≤ -4.2
18 | GGAUCUUCUCGAUCUAACAAAAAAGACAAAUCUGCCACAAAGCUUGAGAGCAUCUUCGGAUGCAGAGCCGGCAGCCUUCGGUGGCGCUAUAGCGCCAACGUUCGCAACUAUGAUACGCAAAACGCGCGCUCCGUUGAAUGGAGUUUAUCAUG [G68C G88U U104G C114U U127C] | ≤ -4.2
19 | GGAUCUUCUCGAUCUAACAAAAAAGACAAAUCUGCCACAAAGCUUGAGAGCAUCUUCGGAUGCAGAGCCGGCAGCCGUCAGUGGCGCAAUAGCGCCAACGUUCUCAACUAUGACACGUAACACGCGUGCUCCGUUGAAUGGAGUUUAUCAUG [G68C U77G G80A G88A C118U A121C] | ≤ -4.2
